Test results from the supplement of paper PMC8728848.
Some of the results follow.

Tests used:
Assay in all cases: glycan array binding signal (z-score within array); higher = stronger binding
Details in all cases: glycan notation: IUPAC condensed, linker removed; mutation: E227A
[1] = target: Fuc(a1-2)Gal
How it was run: (§1)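 From the Consortium for Functional Glycomics database, 3228 arrays were curated, keeping only those whose protein sequence was available. Binding is given as a within-array Z-score averaged across arrays sharing a protein sequence and across linkers. Negative Z-scores can be read as non-binding.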

[2] = target: Fuc(a1-2)Gal(b1-3)GalNAc
How it was run: as §1

[3] = target: Fuc(a1-2)Gal(b1-3)GalNAc(a1-3)[Fuc(a1-2)]Gal(b1-4)Glc
How it was run: as §1

[4] = target: Fuc(a1-2)Gal(b1-3)GalNAc(a1-3)[Fuc(a1-2)]Gal(b1-4)GlcNAc
How it was run: as §1

[5] = target: Fuc(a1-2)Gal(b1-3)GalNAc(b1-3)Gal
How it was run: as §1

[6] = target: Fuc(a1-2)Gal(b1-3)GalNAc(b1-3)Gal(a1-4)Gal(b1-4)Glc
How it was run: as §1

[7] = target: Fuc(a1-2)Gal(b1-3)GalNAc(b1-4)[Neu5Ac(a2-3)]Gal(b1-4)Glc
How it was run: as §1

[8] = target: Fuc(a1-2)Gal(b1-3)GlcNAc
How it was run: as §1

[9] = target: Fuc(a1-2)Gal(b1-3)GlcNAc(b1-2)Man(a1-3)[Fuc(a1-2)Gal(b1-3)GlcNAc(b1-2)Man(a1-6)]Man(b1-4)GlcNAc(b1-4)GlcNAc
How it was run: as §1

[10] = target: Fuc(a1-2)Gal(b1-3)GlcNAc(b1-2)Man(a1-3)[Fuc(a1-2)Gal(b1-3)GlcNAc(b1-2)Man(a1-6)]Man(b1-4)GlcNAc(b1-4)[Fuc(a1-6)]GlcNAc
How it was run: as §1

[11] = target: Fuc(a1-2)Gal(b1-3)GlcNAc(b1-3)Gal(b1-4)Glc
How it was run: as §1

[12] = target: Fuc(a1-2)Gal(b1-3)GlcNAc(b1-3)GalNAc
How it was run: as §1

[13] = target: Fuc(a1-2)Gal(b1-3)GlcNAc(b1-3)[Fuc(a1-2)Gal(b1-3)GlcNAc(b1-6)]GalNAc
How it was run: as §1

[14] = target: Fuc(a1-2)Gal(b1-3)GlcNAc(b1-3)[Gal(b1-4)GlcNAc(b1-6)]Gal(b1-4)Glc
How it was run: as §1

[15] = target: Fuc(a1-2)Gal(b1-3)GlcNAc(b1-3)[Neu5Ac(a2-6)Gal(b1-4)GlcNAc(b1-6)]Gal(b1-4)Glc
How it was run: as §1

[16] = target: Fuc(a1-2)Gal(b1-3)GlcNAc6S
How it was run: as §1

[17] = target: Fuc(a1-2)Gal(b1-3)[Fuc(a1-4)]GlcNAc
How it was run: as §1

[18] = target: Fuc(a1-2)Gal(b1-3)[Fuc(a1-4)]GlcNAc(b1-2)Man(a1-3)[Fuc(a1-2)Gal(b1-3)[Fuc(a1-4)]GlcNAc(b1-2)Man(a1-3)]Man(b1-4)GlcNAc(b1-4)GlcNAc
How it was run: as §1

[19] = target: Fuc(a1-2)Gal(b1-3)[Fuc(a1-4)]GlcNAc(b1-2)Man(a1-3)[Fuc(a1-2)Gal(b1-3)[Fuc(a1-4)]GlcNAc(b1-2)Man(a1-6)]Man(b1-4)GlcNAc(b1-4)[Fuc(a1-6)]GlcNAc(b1-4)[Fuc(a1-6)]GlcNAc
How it was run: as §1

[20] = target: Fuc(a1-2)Gal(b1-3)[Fuc(a1-4)]GlcNAc(b1-3)[Fuc(a1-3)[Gal(b1-4)]GlcNAc(b1-6)]Gal(b1-4)Glc
How it was run: as §1

[21] = target: Fuc(a1-2)Gal(b1-3)[Fuc(a1-4)]GlcNAc(b1-3)[Gal(b1-4)GlcNAc(b1-6)]Gal(b1-4)Glc
How it was run: as §1

[22] = target: Fuc(a1-2)Gal(b1-4)Fuc(a1-3)]GlcNAc(b1-2)Man(a1-3)[Fuc(a1-2)Gal(b1-4)[Fuc(a1-3)]GlcNAc(b1-2)Man(a1-6)]Man(b1-4)GlcNAc(b1-4)GlcNAc
How it was run: as §1

B1: Epa1-NP-mutant-E227A (Candida glabrata), Q6VBJ0 (protein)
chain: MILNPALFLNKCVCIYTTLILLLLTNGGYATSSNDISLASKDPTTFPLGCSPDITTPKKGLSMELYSYDFRKKGSYPCWDAAYLDPNYPRTGYKSHRLLAKVDGVTGNINFYYHATKGCTPQLGHLPASYNYPKPLTMTNFTMLLYGYFRPKVTGFHTFTISADDLLFVNFGAGNAFDCCRRDSSADHFGNYQAYAIWGSKTAKDELTVHLDAGVYYPIRLFYNNRAYDGALSFTFKTESNENTVSDFSEYFFSLDDTEEGCPGLISYDSSCASVKTSKIIGIDYHTETPNENLVPITKTIYHLGIPCTGTTTTPLCGSGFYDPLANKCVTINTSSTSSVTKTTSHTTSKEVSFHSSISSQKTLIPKSIPSPYGPIKSQSIPTEMETSSEISSSEYAFSDVISTPSHSPYTKKHSSLNSSSYTSTVIHSLTSYSISQGIFSTSLSEQNITSKSSTDKFSTATSMSNNITQSSIIISQFSTNNENYTTTSMHTSSDKISTETLNNSISTTTSILFSNSSTILKNNTTIISSDKDTHYHPVNPTIVCSTNKTEIICASITQPSISNSNNHWSSSVLKFNSTTVRSTLPSSAGSNETSINVPFSSSTESNTSTSSTSTSNSKMVRSTLPSSAGSNETSISVPFSSSTESNTSTSSTSTSNSKMVRSTLPSSAGSNETSINVPFSSSTESNTSTSSTSTSNSKTVRSTPFSSAGIIMTSLSQRNNKSASSYASSNSKCYNTADSCRKVHSTPSYLLTSSYTSEGVDYDCSLVSTKLKINDTNCVNNKHTTKSCLKTSVTTTIPTLEIKTARKSSSNTIGLHSYPTSSPNKSISSAPIIGYISSFKTIKTASPSYQTSDLTTITTITSLNNPGSTAVENTHESNDKSRKTSSNDISSKHSVIKETKDAVESSNKSHQTNTLKCSSIIIASSSHNSYESLGGTTLTLTLSKVYSPQNNDTLPFLEISEVNPSRTVLPESSKMMQYLTSTEERNKTARNTIATNIVSISTFHFEGEGNAIRMGYTQLLLMLIGIIVMNIGT
- glycan array binding signal (z-score) [1]: -0.193
- glycan array binding signal (z-score) [2]: -0.197
- glycan array binding signal (z-score) [3]: -0.214
- glycan array binding signal (z-score) [4]: -0.199
- glycan array binding signal (z-score) [5]: -0.221
- glycan array binding signal (z-score) [6]: -0.198
- glycan array binding signal (z-score) [7]: -0.211
- glycan array binding signal (z-score) [8]: -0.21
- glycan array binding signal (z-score) [9]: -0.184
- glycan array binding signal (z-score) [10]: -0.163
- glycan array binding signal (z-score) [11]: -0.204
- glycan array binding signal (z-score) [12]: -0.217
- glycan array binding signal (z-score) [13]: -0.15
- glycan array binding signal (z-score) [14]: -0.138
- glycan array binding signal (z-score) [15]: -0.203
- glycan array binding signal (z-score) [16]: -0.195
- glycan array binding signal (z-score) [17]: -0.226
- glycan array binding signal (z-score) [18]: -0.162
- glycan array binding signal (z-score) [19]: -0.174
- glycan array binding signal (z-score) [20]: -0.272
- glycan array binding signal (z-score) [21]: -0.17
- glycan array binding signal (z-score) [22]: -0.184
